# Data published in PubChem BioAssay AID488969 (Vanderbilt High Throughput Screening Facility, 2010).
# Over roughly 110,000 compounds, “z-score” has its median near -0.1; the highest 2% begin near 2. Some of the results follow. Active and inactive are the calls of the source.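 The calls were made as follows: active = z-score in the third read window above 3 or below -3; inactive = the rest.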
# Molecular target: Metabotropic glutamate receptor 8 (Rattus norvegicus) (UniProt P70579)
# Test: mGluR8 Gi/Go-coupled signaling modulation – cell-based, rat, thallium flux, HTS, primary screen (AID 488969)
# Conditions: HEK293 rat mGluR8, GIRK (G protein-gated inwardly rectifying potassium channel) thallium flux, FluoZin2; at 10 µM; stronger effect = higher value; submaximal glutamate (EC20) added with thallium
# UniProt P70579, sequence (P70579 whole entry, looked up): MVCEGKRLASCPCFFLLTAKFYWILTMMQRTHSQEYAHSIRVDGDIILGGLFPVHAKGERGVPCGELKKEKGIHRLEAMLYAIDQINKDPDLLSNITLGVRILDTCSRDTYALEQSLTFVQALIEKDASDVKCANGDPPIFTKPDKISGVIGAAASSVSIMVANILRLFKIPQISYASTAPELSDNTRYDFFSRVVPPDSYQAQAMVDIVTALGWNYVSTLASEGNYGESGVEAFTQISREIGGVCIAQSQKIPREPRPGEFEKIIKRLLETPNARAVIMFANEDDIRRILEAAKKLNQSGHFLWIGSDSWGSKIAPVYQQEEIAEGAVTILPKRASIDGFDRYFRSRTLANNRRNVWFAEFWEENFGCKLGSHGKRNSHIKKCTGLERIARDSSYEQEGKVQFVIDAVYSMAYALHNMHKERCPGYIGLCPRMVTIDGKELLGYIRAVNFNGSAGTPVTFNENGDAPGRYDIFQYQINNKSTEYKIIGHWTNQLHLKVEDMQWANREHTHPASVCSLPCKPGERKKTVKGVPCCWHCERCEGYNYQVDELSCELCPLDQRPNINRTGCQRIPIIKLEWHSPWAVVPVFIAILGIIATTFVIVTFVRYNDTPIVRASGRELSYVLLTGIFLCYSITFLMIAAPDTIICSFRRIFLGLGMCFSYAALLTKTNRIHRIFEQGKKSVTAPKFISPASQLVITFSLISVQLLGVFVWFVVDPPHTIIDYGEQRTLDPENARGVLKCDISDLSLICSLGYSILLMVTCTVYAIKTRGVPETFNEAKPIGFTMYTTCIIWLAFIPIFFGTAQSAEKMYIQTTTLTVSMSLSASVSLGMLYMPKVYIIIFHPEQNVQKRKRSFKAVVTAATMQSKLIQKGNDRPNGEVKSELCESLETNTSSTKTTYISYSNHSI
row,SMILES,z-score
1,Cc1ccc(SCCNC(=S)Nc2cc(C)cc(C)c2)cc1,-0.391
2,COc1ccc(C2SCCN2C(=S)Nc2cccc(Cl)c2)cc1 (centres undefined),0.287
3,Cc1ccc(N2CCOCC2)c2c1C(=O)c1ccccc1C2=O,-0.113
4,CCCC(CCC(=O)Nc1ccc(C(=O)OCC)cc1)C(=O)O (centres undefined),-0.53
5,COc1ccccc1N1CC(C(=O)Nc2nnc(SCc3ccccn3)s2)CC1=O (centres undefined),0.243
6,O=S(=O)(c1cnc(Cl)c(Cl)c1)N1CCCc2ccccc21,-0.611
7,Cc1c(C=O)cnn1CCC(=O)O,-0.0719
8,CCn1cc(Br)c(C(=O)Nc2ccc(OC)cc2)n1,-0.389
9,CN(C)CCCNC(=O)c1ccc(-c2nc(-c3ccc(Cl)cc3)cs2)cc1,active: 3.28
10,Cc1cc(C(=O)COC(=O)C2=NNC(=O)CC2)c(C)n1-c1ccc(OC(F)F)cc1,0.286
11,NC(=O)CSc1nc2ccccc2n1Cc1ccccc1,-0.072
12,CNC(=O)CN(c1cc([N+](=O)[O-])ccc1OC)S(C)(=O)=O,-0.226
13,FC(F)(F)c1nc(N2CCCC2)ncc1-c1nnnn1-c1ccc(Cl)cc1,-0.207
14,O=C(CCN1C(=O)c2ccccc2C1=O)Nc1ccccc1C(=O)N1CCOCC1,-0.292
15,Cc1csc2ncc(C(=O)N3c4ccccc4CC3C)c(=O)n12 (centres undefined),1.13
16,Cc1[nH]n(-c2ccc([N+](=O)[O-])cc2)c(=O)c1N=Nc1nc2ccccc2s1,2.47
17,Fc1cccc(COc2ccccc2CNc2ccccc2)c1,0.0246
18,C/C(N)=C(/C#N)C(=O)CSc1nnc(Cc2ccccc2F)n1N,0.932
19,COC(=O)c1[nH]c2cccc(OC)c2c1NC(=O)CCN1CC(C)CC(C)C1 (centres undefined),-0.111
20,c1ccc(-c2oc3ncnc(N4CCOCC4)c3c2-c2ccccc2)cc1,-0.455
21,O=C(c1nc2nc(-c3ccc(Cl)cc3)cc(C(F)(F)F)n2n1)N1CCOCC1,-0.484
22,CCOC(=O)N1CCN(C(=O)c2cc(-c3ccc(F)cc3)[nH]c2C)CC1,-1.27

row,SMILES,z-score
1,Cc1csc(SCc2nnc(-c3ccccc3Br)o2)n1,-0.633
2,Cc1ccc(/C=C(/NC(=O)c2ccccc2)C(=O)NCCc2c[nH]c3ccccc23)o1,-0.272
3,CCOC(=O)C1=C(c2ccccc2)NC(SCC)=C(C#N)C1c1cccnc1 (centres undefined),-0.583
4,COC(=O)c1cc(=O)nc2sc3ccccc3n12,0.125
5,CCn1c(Cc2ccccc2)nnc1SCC(=O)Nc1ccc(C)cc1,-0.0912
6,NC(=O)[C@H](Cc1cc2ccccc2s1)NC(=O)[C@@H]1CC2(CC(c3cccc(NC(=O)[C@@H]4CCC(=O)N4)c3)=NO2)CN1C(=O)c1ccccc1 (some centres undefined),-0.0413
7,Cc1cc(=O)oc2cc(OCC(=O)NCc3ccncc3)ccc12,-0.0331
8,O=C(COc1ccccc1)N1CCN(C(=O)Cc2ccccc2)CC1,-0.784
9,CCCCn1c(=O)[nH]c(=O)c2c1nc(-c1ccc(-c3ccccc3Br)o1)n2CCOC,0.145
10,Cc1ccccc1N1C(S)=C(C#N)C(=O)NC1c1cccs1 (centres undefined),-0.56
11,Cc1cccc(OCC(=O)N/N=C/c2cc([N+](=O)[O-])ccc2N2CCOCC2)c1,-0.223
12,COc1ccc(S(=O)(=O)n2ccc(-c3cnc(-c4ccccc4)s3)n2)cc1,-0.248
13,CCSC1=NC(C)(C)C=C(/C=C/c2ccc(Cl)cc2Cl)N1,0.874
14,CCCCC(=O)NCCc1ccc(OC)cc1,-0.412
15,CCOc1cc(/C=N\NC(=O)c2ccc(C)nc2)cc([N+](=O)[O-])c1O,-0.222
16,COc1ccc(S(=O)(=O)NCCC(C)C)cc1C,-0.152
17,Cc1ccc(C)c(N2CN(Cc3ccco3)CNC2=S)c1,0.504
18,CCC(CC)NC(=O)c1cc2c(C)nn(Cc3ccccc3Cl)c2s1,-0.23
19,CS(=O)(=O)N(CC(O)Cn1c2ccccc2c2ccccc21)c1cccc2ccccc12 (centres undefined),0.332
20,O=C(c1ccncc1)N1CCN(C(=O)c2ccncc2)CC1,0.319
21,O=[N+]([O-])c1ccc(-c2nc3ccc([N+](=O)[O-])cc3[nH]2)cc1,-0.201
22,COc1ccc(C(=O)CSc2ccc(-c3ccco3)nn2)cc1,0.654

row,SMILES,z-score
1,N#C/C(=C\c1cn[nH]c1-c1ccc(Cl)cc1)C(=O)NC1CC1,-0.545
2,CC(CS(=O)(=O)c1ccc2ccccc2c1)N1CCN(C2CCCCC2)CC1 (centres undefined),0.912
3,COC(=O)CSc1nnc(-c2ccc(OC)cc2OC)o1,-0.797
4,Cc1noc(NC(=O)c2ccc(F)cc2)c1C#N,-0.00458
5,CCc1c(C)nc(N)n2c(SCC(=O)Nc3ccccc3)nnc12,-0.634
6,CCCNC(=S)Nc1ccc2nc(-c3ccccn3)c(-c3ccccn3)nc2c1,-0.0944
7,CC1CSc2nc3sc4c(c3c(=O)n21)CCCC4 (centres undefined),-0.765
8,CCOC(=O)c1c(N)sc(C(=O)N2CCCCC2)c1C,0.00178
9,COC(=O)c1ccc(CN2CCN(Cc3ccc(C(=O)OC)o3)CC2)o1,0.543
10,c1ccc(N2CCCCC2)c(NC2=NCCC2)c1,-0.219
11,CC1CCC2(CC1)N=C(N)Nc1nc3ccccc3n12 (centres undefined),0.276
12,c1ccc(-c2nnc(CSc3nc4ccccc4[nH]3)o2)cc1,-0.393
13,COc1ccc(C(=O)Nc2cccc(N(C)S(C)(=O)=O)c2)cc1OC,0.00947
14,CCOC(=O)CSC1=C(C#N)C(c2ccccc2OCC)C(C(=O)OCC)C(=O)N1 (centres undefined),-0.815
15,OCc1nc2ccccc2n1CC(O)COc1ccccc1 (centres undefined),0.379
16,CC1CCCN(C(=S)NCCc2ccccc2)C1 (centres undefined),0.132
17,Cc1cc(C)cc(NS(=O)(=O)c2ccc3c(c2)c(=O)n(C)c(=O)n3C)c1,-0.825
18,Cc1ccc(NC(=O)C[n+]2ccccc2)cc1[N+](=O)[O-],-0.109
19,CCn1c(=S)ccc2ccc(OC)cc21,-0.373
20,O=C(Nc1ncc2c(n1)-c1ccccc1CC2)c1cccc(Cl)c1,-0.891
21,CC(C)(C)c1nn2cnnc2n(/N=C/c2ccc(O)cc2)c1=O,-0.126
22,COc1ccc(C(=O)Oc2cc(/C=N/NS(=O)(=O)c3ccc(C)cc3)ccc2OC)cc1,-0.878

row,SMILES,z-score
1,CSCC[C@H](NC(=O)OC(C)(C)C)c1nnc(SCc2cccc(F)c2)o1,-1.29
2,C=CCn1c(CNc2ccccc2)nnc1SCC(=O)N/N=C/c1ccccc1O,-0.235
3,Cc1c(F)cccc1NS(=O)(=O)c1ccccc1C#N,0.587
4,CCOC(=O)c1cc(-c2ccccc2)sc1NC(=O)C(C)N1C(=O)c2ccccc2C1=O (centres undefined),0.0576
5,CCOC(=O)C1=C(O)/C(=C\c2ccc(OC)c(OC)c2)N=C1C,0.00382
6,CC(C)(C)NC(=O)C(c1ccco1)N(C(=O)c1csnn1)c1ccccc1 (centres undefined),0.107
7,Cc1ccc(N2C(=O)[C@@H]3C(c4ccc(F)cc4)=NO[C@@H]3C2=O)cc1,0.188
8,O=c1[nH]cnc2scc(-c3ccc(-c4ccccc4)cc3)c12,0.454
9,O=C(C[n+]1cc(-c2ccc(F)cc2)n2c1CCC2)N1c2ccccc2Sc2ccccc21,-0.285
10,O=C(Cn1nnc2ccccc21)NCc1ccccc1,0.579
11,O=C(CN1CCN(c2ccccc2)CC1)Nc1ccccc1Sc1ccccc1,0.145
12,COc1cc(C=O)ccc1OCCOCCOc1c(C)cc(Cl)cc1Cl,-0.192
13,Cc1ccc(C(=O)Nc2ccccc2SCC2CSc3nc4ccccc4c(=O)n32)cc1 (centres undefined),-0.196
14,Cc1cc(C)c2nc(NC(=O)c3ccc4c(c3)OCO4)sc2c1,-0.113
15,COc1ccc(C2C(C(=O)Nc3cccnc3)=C(C)Nc3nc(-c4cccs4)nn32)cc1 (centres undefined),-0.167
16,Cc1csc(NC(=O)CSc2nnc(NC(=O)COc3ccccc3)s2)n1,-0.167
17,Cc1ccc(CS(=O)(=O)Cc2ccc(C(=O)NCc3ccccn3)o2)cc1,-0.322
18,COc1ccc(OC)c(NC(=O)c2c(NC(=O)c3ccco3)sc3c2CCC3)c1,-0.643
19,Cc1ccccc1N1CCN(CCN2C(=O)CC(=C3c4ccccc4-c4ccccc43)C2=O)CC1,-1.07
20,Fc1ccc(CSc2nnc(Cc3sc(-c4ccccc4)nc3-c3ccccc3)o2)cc1,0.324
21,CC(C)(C)CC(=O)Nc1ccc(C(N)=O)cc1,1.61
22,CSc1nnc2c(n1)OC(c1cn(C)c3ccccc13)N(C(C)=O)c1ccccc1-2 (centres undefined),0.274

row,SMILES,z-score
1,Cc1ccc(Cn2c(=N)n(CC(=O)c3ccc([N+](=O)[O-])cc3)c3ccccc32)cc1,0.888
2,CC(C)CCNC(=O)CN(C(=O)CCC(=O)Nc1ccccn1)c1ccc2c(c1)OCO2,-1.06
3,CCn1cc(C2=NOC(C(=O)Nc3cc(OC)c(Cl)cc3OC)C2)c(C)n1 (centres undefined),-0.703
4,O=C(c1ccco1)N1CCN(S(=O)(=O)c2cccc(C(F)(F)F)c2)CC1,0.151
5,Cn1c(=O)n(/N=C/c2ccccc2)c2ccccc21,0.0704
6,CCN1CCN(C(=O)CS(=O)Cc2nc(-c3ccc(OC)cc3)oc2C)CC1 (centres undefined),-0.122
7,CC(C)c1ccccc1NC(=O)COC(=O)/C=C/c1cccc([N+](=O)[O-])c1,active: 5.9
8,C=CCN1C(=O)C(O)(CC(=O)c2c(C)n[nH]c2C)c2cc(Br)ccc21 (centres undefined),-0.0393
9,O=C(NCC(=O)N(Cc1ccco1)C(C(=O)NC1CCCC1)c1ccncc1)c1cccs1 (centres undefined),-0.236
10,COC(=O)CNC(=O)c1ccccc1[N+](=O)[O-],-0.154
11,CC(C)(C)NS(=O)(=O)c1cc(C(=O)Nc2sccc2C#N)ccc1Cl,-0.214
12,Cc1ccccc1CN(c1ccc(C(=O)N2CCCC2)cc1)S(C)(=O)=O,-0.101
13,O=C(CSc1ncn[nH]1)Nc1cccc2ccccc12,0.0743
14,CC#CCCCC(=O)Nc1cc(OC)nc(OC)n1,-0.0455
15,COCCn1c(=S)[nH]c2cc(C(=O)N3CCN(c4ccccc4OC)CC3)ccc2c1=O,-0.495
16,COc1cc2c(c(OC)c1)C(c1cccc(OC)c1OC)CC(=O)N2 (centres undefined),-1.8
17,Cc1cccc(C)c1NC(=O)N1CCC(n2cnc3ccccc32)CC1,-0.0892
18,CN(C)CCNC(=O)/C=N/O,0.333
19,COc1cccc(C(=O)Nc2c(F)c(F)c(F)c(F)c2F)c1,-0.711
20,Cc1cc(NC(=O)COC(=O)CCC(=O)c2ccc(F)cc2)no1,-0.305
21,O=C(Cn1nc(C(F)(F)F)cc1C1CC1)NCc1ccccc1F,-0.325
